Laboratory results from the RNAGym collection of RNA variant scans (doi:10.1073/pnas.2313332121).
This sample is rich in variants without activity.

B1: TPR 5TU (parent)
chain: GGAUCUUCUCGAUCUAACAAAAAAGACAAAUCUGCCACAAAGCUUGAGAGCAUCUUCGGAUGCAGAGGCGGCAGCCUUCGGUGGCGCGAUAGCGCCAACGUUCUCAACUAUGACACGCAAAACGCGUGCUCCGUUGAAUGGAGUUUAUCAUG

Variants of: B1
Assay: polymerase ribozyme fitness, log enrichment relative to wild type (log ratio); higher = more active; in vitro selection for triplet polymerase activity
How it was run: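 Mutant libraries were PCR-built and transcribed for each subunit of a heterodimeric triplet polymerase ribozyme and selected for one round in triplicate at −7 °C, frozen, before gel excision of extended constructs and streptavidin-bead capture. Input and output libraries were Illumina-sequenced, keeping genotypes with ≥10 input reads and ≥1 read per output. Fitness is a logarithmic ratio of genotype to wild-type enrichment, in base 2, using inverse-variance-weighted replicate averages.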

Variant	polymerase ribozyme fitness (log ratio)
GGAUCUUCUCGAUCUAACAAAAAAGACAAAUCUGCCACAAAGCUUGAGAGCAUCUUGGGCUGCAGAGGCGGCAGCCUUCGGUGGCGCGAUAGCGCCAACGUUCUCAACUAUGACACGCAAAACGCGUGCUCCGUUGAAUGGAGUUUAUCAUG	-2.4
GGAUCUUCUCGAUCUAACAAAAAAGACAAAUCUGCCACAAAGCUUGAGAGCAUCUUAGGAUGCAGAGGCGGCAGCCUUCGGUGGCGCGAUAGCGCCAACGUUCUCAACUAUGACACGCAAAACGCGUGCUCCUUUGAAUGGAGUUUAUCAUG	-3.13
GGAUCUUCUCGAUCUAACAAAAAAGACAAAUCUGCCACAAAGCUUGAGAGCAUCUUGGGAUGCAGGGUCGGCAGCCUUCGGUGGCGCCAUAGCGCCAACGUUCUCAACUAUGCCACGCAAAACGCGUGCUCCGUUGAAUGGAGUUUAUCAUG	≤ -4.2
GGAUCUUCUCGAUCUAACAAAAAAGACAAAUCUGCCACAAAGCUUGAGAGCAUCUUAGGAUGCAGAGGCGGCAGCCUUCGGUGGCGCGAUAGCGCGAACGUUCCCAACUAUGACACGCAAAACGCGUGCUCCGUUGAAUGGAGUUUAUCAAG	≤ -4.2
GGAUCUUCUCGAUCUAACAAAAAAGACAAAUCUGCCACAAAGCUUGAGAGCAUCUUGGGAUGCCGAGGCGGCAGCCUUCGGUGGGGCGAUAGCGCCAACGUUCUCAACUAUGACACGCAAAACGCGUGCUCCGUUGAAUGGAGUUUAUCAUG	≤ -4.2
GGAUCUUCUCGAUCUAACAAAAAAGACAAAUCUGCCACAAAGCUUGAGAGCAUCUUGGGAUGCAGAGGCGGCGGCCUUCGGUGGCGGGAUAGCGCCAUCGUUCUCAACUAUGACACGCAAAACGGGUGCUCCGUUGAAUGAAGUUUAUCAUG	≤ -4.2
GGAUCUUCUCGAUCUAACAAAAAAGACAAAUCUGCCACAAAGCUUGAGAGCAUCUUAGUAUGCAGAGGCGGCAGCCAUCGGUGGCGCGAUAGCGCCAAGGUUCUCAACUAUGACACGCAAAACGCGUGCUCCGUUGAAUGGAGUUUAUCAUG	≤ -4.2
GGAUCUUCUCGAUCUAACAAAAAAGACAAAUCUGCCACAAAGCUUGAGAGCAUCUUAGGAUGCAGAGGCUGCAGCCUUCGGUGGCGCGAUAGCGCUAACGUUCUCAACUAUGACACGCAAAACGCGUGCUCCGUUGAAUGGAGUUUAUCAUG	-2.27
GGAUCUUCUCGAUCUAACAAAAAAGACAAAUCUGCCACAAAGCUUGAGAGCAUCUUGGGAUGCAGAGGCGGCUGCCUUCGGUCGCGCGAUAGCGCCAACGUUCUCAACUAUGACACGCAAAACGCGUGCUCCUUUGAAUGGACUCUAUCAUG	≤ -4.2
GGAUCUUCUCGAUCUAACAAAAAAGACAAAUCUGCCACAAAGCUUGAGAGCAUCUUAGCGUGCAGAGGCGGCAGCCUUCGGUGGCGCGAUAGCGCCAACGUUCUCAACUAUGACACGCAAAACGCGUGCUCCGUUGAAUGGAGUUUAUCAUG	0.42
GGAUCUUCUCGAUCUAACAAAAAAGACAAAUCUGCCACAAAGCUUGAGAGCAUCUUAGGAUGCAGAGGCGGCAGCCUUCAGUGGCGCGAUAGUGCCAACGUUCUCAGCUAUGACACGCAAAACGCUUGCUCCGUUGAAUGGAGUUUAUCAUG	≤ -4.2
GGAUCUUCUCGAUCUAACAAAAAAGACAAAUCUGCCACAAAGCUUGAGAGCAUCUUAGGAUGCAGAGGCGGCAGCCUUCGGUGGCGCGAUAGCACCAACGUUCUCAACUAUGACACGCAAAACGCGUGCUCCGUUGAAUGGAGUUUAUCAUG	-0.487
GGAUCUUCUCGAUCUAACAAAAAAGACAAAUCUGCCACAAAGCUUGAGAGCAUCUUGGGAUGCAGAGGCGGCAGCCUUCGGUGGCGCGAUAGCGCCAACGUUCUCAUCUAUGACACGCAAAACGCGUGCUCCCUUUAAUGGAGAUUAUCAUG	≤ -4.2
GGAUCUUCUCGAUCUAACAAAAAAGACAAAUCUGCCACAAAGCUUGAGAGCAUCUUAUGAUGCAGAGGCGGCAGCAUUCGGUGGUGCGAUAGCGCUAACGUUCUCAACUAUGACACGCAAAACGCGUGCUCCGUUGAAUGGAGUUUGUCAUG	-3.03
GGAUCUUCUCGAUCUAACAAAAAAGACAAAUCUGCCACAAAGCUUGAGAGCAUCUUAGGAUGCAGAGGCGGCAGCCUUCGGUGGCACGAUAGCGCCAACGUUCUCAACUUUGACACGCAAAACGCGUGCUCCGUUGAAUGGAGUUUAUAAUG	≤ -4.2
GGAUCUUCUCGAUCUAACAAAAAAGACAAAUCUGCCACAAAGCUUGAGAGCAUCUUAGGAUGCAGAGGCGGCAGCCUUCGGUGGCGCGAUAGCGCCAACGUUCUCAACUAUGACACGCAAAACUCGUGCUCCGUUGAAUGGAGUUUAUCAUG	-0.787
GGAUCUUCUCGAUCUAACAAAAAAGACAAAUCUGCCACAAAGCUUGAGAGCAUCUUAGGAUGCAGAGGCGUCAGCCUUCGGUGGCGCGAUACCGCCAACGUUUUCAACUAUGACACGCAGAACGCGUGCUCCGUUGAAUGCAGUUUAUCAUG	≤ -4.2
GGAUCUUCUCGAUCUAACAAAAAAGACAAAUCUGCCACAAAGCUUGAGAGCAUCUUAAGAAGCAGAGGCGGCAGCCUUCGGUGGCGCGAUAGCCCCAACGUUCUCAACUAUGACACGCAAAACGCGUGCUGCGUUGAAUGGAGUUUAGCAUG	≤ -4.2
GGAUCUUCUCGAUCUAACAAAAAAGACAAAUCUGCCACAAAGCUUGAGAGCAUCUUAGGAUGCAGAGUAGGCAGCCUUCGCUGGCGCGAUAGCGCCAACGUUCUCAACUAUGACACGCAAAACGCGUGCUCCGCUGAAUGGAGUUUAUCAUG	≤ -4.2
